# Assays:
# HCT116 cells = experiment: MTT assay, HCT116 cell proliferation; assay type: cell-based, human; conditions: HB-EGF siRNA 50 nM; for RI value (Sexp/Sobs), antibody in combination with HBEGF siRNA: 72 hr
# Method: FIG. 8 illustrates HCT116 cell proliferation following AREG/HB-EGF silencing by siRNA and/or Chemotherapy treatment. Cells were transfected with AREG siRNA (10 nM), HB-EGF siRNA (10 nM) or a control siRNA (10 nM). […] Cell proliferation was analysed by MTT assay 48 hr after transfection/chemotherapy
# FIG. 28 illustrates HCT116 cell proliferation after treatment with AREG antibody. Cell proliferation was analysed by MTT assay 48 hr after treatment.
# FIG. 30 illustrates HCT116 cell proliferation after treatment with AREG antibody. Cell proliferation was analysed by MTT assay 48 hr after treatment.
# FIG. 31 illustrates HCT116 cell proliferation after treatment with AREG antibody. Cell proliferation was analysed by MTT assay 48 hr after treatment
# FIG. 33 illustrates HCT116 cell proliferation following HB-EGF silencing by siRNA and/or treatment with Anti AREG antibodies (6E11 1E92D8 & 6E11 1E9 106). Cells were transfected with HB-EGF siRNA (50 nM) or a control siRNA (50 nM). Cell proliferation was analysed by MTT assay 72 hr after transfection.
# Cells were seeded at 5000 cells per well in a 96 well plate or 5×10^5 cells per well in a 6 well plate. The cells were cultured for 24 hours before transfection. The siRNA was made up to 100 nM in serum free DMEM and left for 5 minutes at room temperature. The Dharmafect transfection reagent was also made up in the serum free DMEM and incubated for 5 minutes at room temperature. The transfection reagent was added to the siRNA and incubated at room temperature for 20 minutes. The media was removed from the plate wells and antibiotic free DMEM was added to the wells. After 20 minutes the siRNA was added dropwise to the wells. The plates were incubated at 37° C. for 48 hours.
# Cell viability was assessed by 3-(4,5-dimethylthiazol-2-yl)-2,5-diphenyltetrazolium bromide (MTT, Sigma) assay (Mosmann, T. 1983. J. Immunol. Methods 65:55-63). To assess chemotherapy/siRNA interactions 5000 cells were seeded per well on 96 well plate. […] Cell viability was determined by reading the absorbance of each well at 570 nm using a microplate reader (Tecan Sunrise, Biorad, UK).
# H460 lung carcinoma cell = experiment: MTT assay, H460 lung carcinoma cell proliferation; assay type: cell-based; conditions: 25 nM, 50 nM or 100 nM antibody, 48 hours, against isotypic control antibody
# Method: FIG. 32 illustrates H460 lung carcinoma cell proliferation following treatment with different concentrations of AREG (6E11 1E9 106) antibody or an isotype control antibody. Cells were seeded 24 hours before treatment with either 25 nM, 50 nM or 100 nM antibody. Cell viability was assayed 48 hours after treatment by MTT assay.
# Cell viability was assessed by 3-(4,5-dimethylthiazol-2-yl)-2,5-diphenyltetrazolium bromide (MTT, Sigma) assay (Mosmann, T. 1983. J. Immunol. Methods 65:55-63). To assess chemotherapy/siRNA interactions 5000 cells were seeded per well on 96 well plate. After 24 hours cells were transfected with siRNA and treated with various chemotherapeutic agents at different concentrations. After 48 hours MTT (1.0 mg/ml) was added to each well and cells were incubated at 37° C. for 2 hours. The culture media was removed and formazan crystals were reabsorbed in 200 μl DMSO. Cell viability was determined by reading the absorbance of each well at 570 nm using a microplate reader (Tecan Sunrise, Biorad, UK).
molecule,measurement,setting,value
"6E11 1E9 106: murine anti-AREG monoclonal antibody; VH Sequence ID No: 27, VL Sequence ID No: 28; 6E11 1E92D8 shown to be the same antibody (antibody, listed as Mus sp.) VH: MECNWILPFILSVTSGVYSQVQLQQSGAELARPGASVKLSCKASGYTFTRYWMQWIKQRPGQGLEWIGAIYPGNGDIRYTQKFKGKATLTADKSSSTAYMQLSSLASEDSAVYYCARGTTPSSYWGQGTLVTVSAAKTTAPSVYPLAPVCGDTTGSSVTLGCLVKGYF light: MMSPAQFLFLLVLWIRETSGDVVMTQTPLTLSVSIGQPASISCKSSQSLLDSDGKTYLNWLLQRPGQSPKRLIYLVSKLDSGVPDRFTGSGSGTDFTLKISRVEAEDLGVYYCWQGTHFPWTFGGGTKLEIKRADAAPTVSIFPPSSEQLTSGGASVVCFLNNFYPK","reduction in cell growth (MTT), HBEGF siRNA and/or AREG antibody",HCT116 cells; 72 hr after transfection,~50%
same,"RI value (Sexp/Sobs), antibody in combination with HBEGF siRNA",HCT116 cells; synergism defined as RI>1,above 5
same,"RI value (Sexp/Sobs), antibody in combination with HBEGF siRNA","HCT116 cells; synergism defined as RI>1, listed as 6E11 1E92D8",approximately 2
same,"cell viability (MTT), AREG antibody",H460 lung carcinoma cell,significantly attenuates cell viability
